Values marked as one replicate rest on one cluster of the flow cell; about a third of the high ones do not repeat.
What follows are sequences tested on ATP (assay: switch fluorescence ratio, 500 uM ATP over buffer (Cy3 cluster intensity, sum of 5 cycles each) (fold (ratio)); higher = stronger signal-on switching upon ATP binding; sequences stand for … in TCGTCGGCAGCGTCAGATGTGTATAAGAGACAGTTTTTTTTTTTTTTTTTTTTTTTTT…TC). Conditions: aptamer strand: ATP DNA aptamer (quencher-CACCTGGGGGAGTATTGCGGAGGAAGG + anchor), 100 nM annealed; ATP concentration: 500 uM; one replicate.
In short: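 The fluorescence ratio divides summed target-cycle Cy3 intensity by summed buffer-cycle Cy3 intensity for each cluster and is averaged per switch-domain sequence. Cy3-labelled switching-strand clusters on a modified Illumina MiSeq flow-cell were annealed to 100 nM quencher-labelled ATP aptamer, then imaged in selection buffer and again after 15 min with 500 uM ATP at 22 °C. Five such cycles were run, with NaOH stripping and re-annealing between them, and clusters outside 100-1000 RFU were excluded.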
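Further: ATP exposure 15 min at 22 °C before imaging.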

Sequence	switch fluorescence ratio
CAAAGGTAA	1.01
AATAAGAACG	0.942
CGGTGACTAG	0.994
TCGAAACGGT	0.967
TTCGTACATA	1.07
TACGCATGTG	1.03
GTTCGCCACG	0.984
ATCGCGTTCG	1
TCTAGACGAG	0.984
CCTTGTAGAT	1.01
TTAGTTTACG	1.02
AAAGGATTCC	1.06
CCTATAACTA	1.01
GATCCTAATG	1.01
CGTAATAATT	1.05
CTGGATTTTG	0.979
AACCGGTCTG	0.977
TCAGTCTGTG	1.05
CCAGTGCCCA	1.01
TCTTTAGCAC	1.18
GGGCCACTAG	1.02
ACTAATGTAC	1.13
TACGACTCCC	1.77

Sequence	switch fluorescence ratio
TCTGCAGACG	1.08
GGGTATAGAG	1.01
CGATGGGCAA	1.52
CTATCGGTGG	1.04
ACCGCTATGA	1.61
ATTCGAATAC	1.3
CTAAGCCAGC	1.06
GGGTTTCGGT	0.99
TGAAATATT	1.07
TAATGTCCCG	0.976
TCATCCCGAT	1.54
TGCGTTTGTG	0.974
AGCTATAGCC	1.02
TTAAATGTAA	0.986
CATAGTTTTG	0.989
AGTATTAGAC	0.959
AGTCATTAGA	0.999
CTCTGGTCAT	1.08
CAGAATTTT	1.02
CATGGACGCT	1.02
GTTTTCCGA	1.02
GCCCTCGAAG	0.997
AGAACGAGGA	1.04

Sequence	switch fluorescence ratio
ACGATGTCTT	1.02
TTGGACTTTC	1.04
TTCGGAGGAA	1.28
GACTGGCATT	1.04
CTGCTAGATC	1.01
TCGCTATAAG	1.08
GTTCTATCTT	0.944
AAAAAGCACA	1.18
GCAATAGGT	1.3
CAAGCCAACC	1.07
TTCTAGGGG	0.992
TACCAGGACG	0.942
AGCGTGGACG	0.984
TGTGTCGG	0.994
CGTGGACAGG	1.02
CGTACGACTG	1.01
TAAAACACGG	1.01
ATTAGTAAGT	1.03
TGAGTGCTGA	0.967
GCCCGGGAGG	0.972
CGTGTAGCAG	0.971
AGGTCCAACA	1.07
AATGGCGAGG	1

Sequence	switch fluorescence ratio
TTCAGTCTCG	0.982
CCTTCATCGA	1.38
AAATTTTCTT	1.03
CATATGCCAG	0.918
TAAGGGCGAA	1.01
GAGGTGGCGC	0.971
ATGTTGGCTT	0.982
GATTTTTCTA	0.961
TAATCACTCA	1.03
CAAGGGG	1.02
CTCTCAGCGC	1.15
GAATTGTCCG	1.03
AACGCCTCC	1.52
GTGCGGGGTC	0.969
GCGGAGAGCG	0.992
GGTTACTGGG	0.997
TTGGGCATGC	0.96
AGGGGCCCAA	0.992
CGGATATTCT	0.932
TAGTGAGCTG	0.95
TTGCTAACTC	1.06
TAGAACAATG	1.01
AATGAGGGTT	0.966

Sequence	switch fluorescence ratio
TAGATTAG	1.04
CCGAGTAAGA	3.49
TTCCATCGAC	1.09
ATGAATAGTA	0.976
TGAGTGCAGA	1.01
AAGGAATGCG	1.02
CGGGAGTGAT	0.976
CCATGCTGTT	0.974
AGTTCGCCC	1.1
GGGCTGGGCG	1.07
AGTATCATAG	0.965
CCATGAGAGG	1
CACTTGGACA	1.04
CGTACCAAC	1.17
GTTGAACCGA	1.11
GCCAATGTAG	0.99
TGGTGGTTTG	1.05
TCCCATAATT	0.999
GAGGGCCAAT	1.01
AAGTCTGTAA	1.02
TTTGGGTCTA	0.95
TTGTGGCGCT	1
GTTCAGTTTT	1.03

Sequence	switch fluorescence ratio
CATACTATGG	1.04
CCTTGTTAAT	1.05
CCAGTGCTG	0.997
TCTTGCCTTC	0.989
CCGGTTAGGC	1.09
AAACGTCGCC	1.09
TACTTAACG	1.2
TAATTAGAAC	1
AAAATGTTGC	0.987
GGGCTTCGCG	0.978
CAGTTCTTTA	1.01
TTGAGGATAA	1.01
CGGCCTTTGG	1.03
ACCCTCTTGA	1.03
GGGGGTCAGA	1.02
GTTATCATAT	1.01
AGTTGTCAAT	1
TTCGGGAAAG	0.965
CGCTGGCGGA	1.05
GTTATGGACG	0.96
CGGTTGGACG	1.08
GCTTTTAGGG	0.998
GCCTCGGACA	1.04

Sequence	switch fluorescence ratio
GCGAAGAGAA	0.946
ACTGCTTATG	0.962
ATCGCGTCTT	1.02
GGTCAAGGT	0.989
TCAGCACTAG	1.28
CGTCGAAAGT	0.981
AGGTCCAAAT	0.953
CAAGAGGCAA	1.13
CAGAAAATAA	1.39
CTATTAGCGT	0.938
GAGCTGGATT	0.999
GCGACGTCGC	0.999
TCACCATTTA	1.05
GTTCGGCGGT	1
CGGGGAATCC	0.945
TGATCTATGT	0.986
TCAAGAGTAA	1.03
GTTTCCTTTT	1.01
GCGTGTCAAC	1.03

— the supplement of paper PMC10126150
